Data: PubChem BioAssay AID1814 (Broad Institute, 2009)
In all, about 300,000 compounds went through this assay and about 22,000 (7.3%) were called active. This list was built around the results that the source calls inconclusive (neither active nor inactive); the mix of calls is not that of the screen. Rule as the data show it: active = activity score below about -60%; inconclusive = mostly about -28% to -61%; inactive = positive scores.

Test: Activators working through SNCA 5'UTR binding (MLPCN) (AID 1814)
Details: alpha-synuclein 5'UTR reporter, activators screen; hits give low values; tested at 7.5 µM
For COc1cc(CC2C(=O)N(C)C(=O)N(C)C2=O)ccc1OCc1ccccc1, the activity score was inconclusive: -55%.
For O=C(c1ccc(F)cc1)C(Cc1ccccc1)N1CCCCC1 (centres undefined), the activity score was inconclusive: -59.7%.
With CC(C)OC(=O)C1C2c3ccccc3C(c3ccccc32)C1C(=O)O (centres undefined) the activity score was inconclusive: -35.4%.
For CC(=O)Nc1ccccc1C(=O)OCc1cccc(F)c1, the activity score was active: -84.9%.
In the case of Cc1ccc(/C=C2\C(=O)NC(=S)N(c3ccc(F)cc3)C2=O)s1, the activity score is reported as active: -116%.
With CCCCCCCSc1cc(OC)c(CCN(C)C)cc1OC the activity score was inactive: 57.7%.
In the case of COc1cc(/C=C/[N+](=O)[O-])ccc1OC(=O)c1cccnc1, the activity score is reported as inconclusive: -59.4%.
With S=C=Nc1ccccn1 the activity score was inconclusive: -51.3%.
With COc1ccccc1-n1c(-c2ccc(C)cc2)nc2ccccc2c1=O the activity score was inconclusive: -59.9%.
For CCCCCCCCCCCCn1ccc(=N)cc1, the activity score was inactive: 104%.
In the case of COc1ccc(-c2cc(=NCC(=O)O)c3ccccc3o2)cc1, the activity score is reported as active: -128%.
With COc1ccc2nc(NC3=NCCN3)sc2c1 the activity score was active: -209%.
With CN(C)C(=O)Oc1ccc2c(c1)O/C(=C\c1ccccc1)C2=O the activity score was active: -101%.
With CC[C@@]1(O)C(=O)OCc2c1cc1n(c2=O)Cc2cc3c(NC(=O)CN)cccc3nc2-1 the activity score was inactive: 70.7%.
In the case of Cc1c2ccncc2c(C)c2c1[nH]c1ccccc12, the activity score is reported as inactive: 114%.
With CCOC(=O)C(O)(c1ccc(NC(=O)c2ccc(Cl)c(Cl)c2)cc1)C(F)(F)F (centres undefined) the activity score was inconclusive: -54%.
In the case of C=C1[C@@H](C)[C@H]2[C@H](Cc3ccccc3)NC(=O)[C@]23OC(=O)/C=C/[C@H](O)CCC[C@@H](C)C/C=C/[C@H]3[C@@H]1O, the activity score is reported as inactive: 109%.
In the case of Cc1cc(C)cc(N2C(=O)NC(=O)/C(=C\C=C\c3ccco3)C2=O)c1, the activity score is reported as active: -116%.
With NC(Cc1ccccc1)c1nc2ccccc2[nH]1 (centres undefined) the activity score was inconclusive: -52.8%.
In the case of Cc1cc2ccccn2c1C(C[N+](=O)[O-])c1c(F)cccc1Cl (centres undefined), the activity score is reported as inconclusive: -60.9%.
In the case of O=C(NC1CN2CCC1CC2)c1cc(Cl)c([N+](=O)[O-])c2nc[nH]c12 (centres undefined), the activity score is reported as inconclusive: -46.8%.
In the case of N#Cc1c(Cl)nc(Cl)c2c1CCN(Cc1ccccc1)C2, the activity score is reported as inconclusive: -54.5%.
For C=CCN1C(=O)NC(=O)/C(=C/c2ccc(OC)c(COc3ccc(NC(C)=O)cc3)c2)C1=O, the activity score was active: -63.8%.
With Cc1cccc(N2C(=O)NC(=O)/C(=C\c3cnn(-c4ccccc4)c3)C2=O)c1 the activity score was inconclusive: -42%.
With O=Cc1cn(Cc2cccc(F)c2)c2ccccc12 the activity score was inactive: 52.4%.
In the case of CCOc1ccc(-c2cc(C)[n+](CCN(CC)CC)c(-c3ccc(OCC)cc3)c2)cc1, the activity score is reported as inactive: 95.2%.
For CN(C)c1ccc(/C=C/C=C/c2sc3ccccc3[n+]2C)cc1, the activity score was inactive: 59.8%.
With O=c1[nH]c(=S)n(C2CC2)c(O)c1/C=N/Nc1cccc2ccccc12 the activity score was inconclusive: -41.5%.
With COc1ccc(Oc2cc(NC(=O)c3nn(C)cc3[N+](=O)[O-])cc([N+](=O)[O-])c2)cc1 the activity score was inconclusive: -60.9%.
With Cc1cccn2c(=O)c3c(nc12)N1CCc2ccccc2C1C1(C3)C(=O)NC(=O)N(C)C1=O (centres undefined) the activity score was inconclusive: -53.5%.
In the case of C/C(=N\N1CCCCC1)c1c(O)[nH]c(=O)[nH]c1=O, the activity score is reported as inactive: 57.9%.
With Cn1c(NN=O)nc2ccccc21 the activity score was inactive: 68.9%.
For COc1ccc(-c2nc3ccccc3c(=O)n2-c2ccc(OC)cc2)cc1, the activity score was inconclusive: -22.8%.
For COc1ccc(C[C@H]2NC[C@H](O)[C@H]2OC(C)=O)cc1, the activity score was inactive: 112%.
In the case of CC(=O)OC1CC[C@]2(C#N)[C@H]3CC[C@]4(C)[C@H](C5C=CC(=O)O5)CCC4(O)C3CCC2(O)C1 (some centres undefined), the activity score is reported as inactive: 85.4%.
In the case of Cc1nc2c(=O)n(C)c(=O)nc-2n(C)n1, the activity score is reported as inactive: 115%.
For O=C(Nc1ccc(Cl)cc1)N1CC2CC(C1)c1cccc(=O)n1C2 (centres undefined), the activity score was inconclusive: -56.1%.
In the case of NC(N)=N/N=C/c1ccc(N(c2ccccc2)c2ccccc2)cc1, the activity score is reported as inactive: 138%.
With O=C1C(=O)c2ccccc2-c2ccccc21 the activity score was inactive: 119%.
In the case of C=C1C(=O)O[C@@H]2C[C@@H](C)[C@@H]3C=CC(=O)[C@@]3(C)[C@@H](OC(=O)CC(=O)O[C@H]3[C@@H]4C(=C)C(=O)O[C@@H]4C[C@@H](C)[C@@H]4C=CC(=O)[C@]43C)[C@H]12, the activity score is reported as inactive: 116%.
For CN(C)C(=S)SSC(=S)N(C)C, the activity score was inconclusive: -37.5%.
With CCCCCCn1c(=O)c(C(=O)Nc2cnccn2)c(O)c2ccccc21 the activity score was inactive: 66.6%.
With C[C@@]1(CO)[C@H](O)CC[C@@]2(C)[C@H]1CC[C@H]1C[C@@H]3C[C@@]12CC[C@]3(O)CO the activity score was inactive: 73.3%.
With C=CCn1c(O)c(C(C)=Nc2ccc(N(CC)CC)cc2)c(=O)[nH]c1=O the activity score was inconclusive: -53.3%.
With Cc1nc2cc(-c3ccccc3)nn2c(C)c1CCC(=O)N1CCC2(CC1)OCCO2 the activity score was inactive: 79.3%.
For CCCCn1c(NS(=O)(=O)c2ccccc2)c(C(=O)OCC)c2nc3ccccc3nc21, the activity score was inconclusive: -44.2%.
For Nc1ncnc2c1ccn2[C@@H]1O[C@H](CO)[C@@H](O)[C@H]1O, the activity score was inactive: 107%.
In the case of C[C@H]1O[C@@H](OC2CC[C@]3(C=O)[C@H]4CC[C@]5(C)[C@@H](C6=CC(=O)OC6)CC[C@]5(O)[C@@H]4CC[C@]3(O)C2)CC2OC(C)(C)OC21 (some centres undefined), the activity score is reported as inactive: 95.7%.
In the case of Cc1nc2cc(-c3cccc(F)c3)nn2c(C)c1CCC(=O)N1CCC2(CC1)OCCO2, the activity score is reported as inactive: 77.4%.
For CC(=O)Nc1ccccc1C(=O)OCc1ccccc1F, the activity score was inconclusive: -59.8%.
In the case of CCOC(=O)c1ccc(-[n+]2c(-c3ccccc3)cc(-c3ccccc3)cc2-c2ccccc2)cc1, the activity score is reported as inconclusive: -37.6%.
With CC12CC[C@H]3[C@@H](CCC4(O)C[C@H](O)CCC34/C=N/NC(=O)c3ccccc3F)C1(O)CCC2C1=CC(=O)OC1 (some centres undefined) the activity score was inactive: 63.7%.
With O=C1C=Cc2ccccc2C1=O the activity score was inconclusive: -51.2%.
For CC/C=C/CC(=O)N[C@@H](c1ccccc1)[C@@H](O)C(=O)O[C@H]1C[C@@]2(O)[C@@H](OC(=O)c3ccccc3)C3[C@](C)(C(=O)[C@H](OC(C)=O)C(=C1C)C2(C)C)[C@@H](O)C[C@H]1OC[C@@]31OC(C)=O (some centres undefined), the activity score was inactive: 77.4%.
